Laboratory results taken from article PMC4336329 (PLoS ONE, 2015).
Screen size: about 310,000 compounds; about 2,200 (0.71%) showed an effect of 50% or more. The effect is printed as a negative number. Some of the results follow.

What follows are molecules tested against human ether-à-go-go-related gene (hERG) potassium channel (human, UniProt Q12809) (assay: primary screen, population patch clamp on CHO cells stably expressing hERG).
Sequence of human ether-à-go-go-related gene (hERG) potassium channel (Q12809 whole entry, looked up): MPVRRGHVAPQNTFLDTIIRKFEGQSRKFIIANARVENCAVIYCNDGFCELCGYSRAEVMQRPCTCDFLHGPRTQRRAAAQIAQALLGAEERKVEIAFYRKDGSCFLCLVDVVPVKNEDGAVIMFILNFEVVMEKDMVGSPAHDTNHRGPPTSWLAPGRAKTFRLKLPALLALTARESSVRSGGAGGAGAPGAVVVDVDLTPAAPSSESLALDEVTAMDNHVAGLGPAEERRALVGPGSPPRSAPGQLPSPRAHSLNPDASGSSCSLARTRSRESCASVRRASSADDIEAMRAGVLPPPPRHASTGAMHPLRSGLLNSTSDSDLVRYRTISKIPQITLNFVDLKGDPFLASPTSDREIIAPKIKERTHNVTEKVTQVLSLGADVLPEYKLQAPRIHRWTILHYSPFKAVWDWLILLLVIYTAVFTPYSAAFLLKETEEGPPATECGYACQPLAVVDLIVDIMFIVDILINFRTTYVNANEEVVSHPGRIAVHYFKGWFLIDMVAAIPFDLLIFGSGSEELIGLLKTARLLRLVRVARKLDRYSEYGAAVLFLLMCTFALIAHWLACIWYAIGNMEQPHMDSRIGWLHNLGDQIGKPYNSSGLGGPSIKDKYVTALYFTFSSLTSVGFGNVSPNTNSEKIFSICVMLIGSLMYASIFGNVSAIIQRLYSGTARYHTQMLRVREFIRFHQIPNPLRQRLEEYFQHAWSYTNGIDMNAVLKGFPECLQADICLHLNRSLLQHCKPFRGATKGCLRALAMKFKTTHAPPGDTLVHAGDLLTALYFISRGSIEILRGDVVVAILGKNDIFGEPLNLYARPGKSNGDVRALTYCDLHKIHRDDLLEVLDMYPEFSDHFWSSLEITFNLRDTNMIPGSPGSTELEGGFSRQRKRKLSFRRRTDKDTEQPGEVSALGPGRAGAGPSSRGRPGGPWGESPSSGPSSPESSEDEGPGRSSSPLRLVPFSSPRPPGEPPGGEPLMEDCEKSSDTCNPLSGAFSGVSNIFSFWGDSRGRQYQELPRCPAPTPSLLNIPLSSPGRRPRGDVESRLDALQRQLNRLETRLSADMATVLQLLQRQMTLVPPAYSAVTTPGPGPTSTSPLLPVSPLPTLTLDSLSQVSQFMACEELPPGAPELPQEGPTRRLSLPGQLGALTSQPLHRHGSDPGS

| Structure (SMILES) | hERG current change (%, negative = inhibition) at 1uM [%] |
| --- | --- |
| CCC1(c2ccc(F)cc2)NC(=O)N(CC(=O)Nc2cccc(S(=O)(=O)N3CCCCC3)c2)C1=O (centres unmarked) | 7.29 |
| Oc1c(I)cc(Cl)c2cccnc12 | 15.6 |
| COc1cc(-c2cc(C(=O)Nc3nc4ccccc4s3)c3ccccc3n2)cc(OC)c1OC | 17.7 |
| CCOc1ccc(NC(c2ccccc2)P(=O)(OC)OC)cc1 (centres unmarked) | 7.41 |
| Cc1c(/C=N\NC(=O)c2c[nH]c3ccccc23)cnn1C | 10.4 |
| COC(=O)CNC(=O)C(NC(=O)c1ccc(Cl)cc1)C(C)C (centres unmarked) | 17.9 |
| COc1ccccc1OCCNC(=O)c1cc(F)c(F)cc1Cl | 3.22 |
| CCCCn1c(NC(=O)c2ccc(Br)o2)c(C(=O)OCC)c2nc3ccccc3nc21 | -17.9 |
| CCOC(=O)c1noc(C)c1C(=O)Nc1nccs1 | 7.45 |
| Cc1cc(=O)[nH]c(SCC(=O)N2C(C)CCCC2C)n1 (centres unmarked) | 9.75 |
| Cc1cccc(C(=O)NNC(=O)c2cccc([N+](=O)[O-])c2)c1 | 11.6 |
| COc1ccc(-c2n[nH]c(=S)n2-c2ccc3c(c2)OCCO3)cc1OC | -0.833 |
| CC(C)CN(CC(C)C)C(=O)Nc1cccc([N+](=O)[O-])c1 | 16.3 |
| Cc1nc2oc3ccccc3c(=O)c2cc1C(=O)O | 19.4 |
| O=C(O)c1cccc(N2C(=O)Nc3ccccc3N2O)c1 | 12 |
| CCC1Oc2ccc(Cl)cc2N(CC(=O)O)C1=O (centres unmarked) | -6.9 |
| Cc1cccc(N/C=C/C(=O)c2ccc(Cl)cc2)c1 | 13.1 |
| Cc1nnc(SCC(=O)Nc2sccc2C#N)n1Cc1ccccc1 | 1.06 |
| COc1cccc(C(c2c(NC(=O)c3ccccc3)sc(C)c2C)N2CCN(C)CC2)c1 (centres unmarked) | 13.8 |
| CCC(=O)Nc1ccccc1C(=O)OCC(=O)c1ccc2ccccc2c1 | 11.4 |
| CN(C)S(=O)(=O)c1cccc(NC(=O)CCCC2CCCCC2)c1 | 18.1 |
| CS(=O)(=O)N1CCC(C(=O)N2CCN(c3ccccc3)CC2)CC1 | 13.4 |
| O=C1c2ccccc2C(=O)N1SC1CCCCC1 | 12 |

| Structure (SMILES) | hERG current change (%, negative = inhibition) at 1uM [%] |
| --- | --- |
| O=C1Cn2c(nc3ccccc32)-c2ccccc2N1 | 3.55 |
| COc1ccc(-c2cc(C(=O)NC(C)c3ccccn3)c3ccccc3n2)cc1OC (centres unmarked) | 5.53 |
| CN1CCN(C(=O)C2=C[C@@H](c3ccc4c(c3)OCO4)C[C@@H](OCc3ccc(CO)cc3)O2)CC1 | 1.17 |
| O=C(OC1CCS(=O)(=O)c2sccc21)c1ccccc1 (centres unmarked) | 1.05 |
| Cc1cc(C)cc(NS(=O)(=O)c2ccc(NC(=O)C3CCCCC3C(=O)O)cc2)c1 (centres unmarked) | 7.48 |
| CCOc1ccc(NC(=O)N(C2CCCCC2)C2CCN(C(C)=O)CC2)cc1 | -6.81 |
| COc1cccc(-c2nc(NCc3cccnc3)c3ccccc3n2)c1O | 14.2 |
| O=C(NC1CCN(Cc2ccccc2)CC1)c1ccccc1Cl | 18.5 |
| COC(=O)C1=C(c2cc3ccccc3o2)C[C@@H]2CC[C@H]1N2C(=O)N1CCC(O)CC1 | 11.1 |
| C=CCNC(=O)/C(C#N)=C/c1ccc(C(=O)O)cc1 | 11.2 |
| O=C(Nc1ccc(C(=O)NCC2CCN(Cc3ccccc3F)CC2)cc1)C1=CSCCO1 | 16.9 |
| O=S(=O)(c1ccc(Oc2ccc(-c3nnco3)cc2)nc1)N1CCC(Cc2ccccc2)CC1 | 2.1 |
| O=C(Cn1cnc2cc([N+](=O)[O-])ccc2c1=O)Nc1ccccc1Cl | 6.18 |
| O=C1c2ccccc2C(=O)N1C1CCCCC1 | 29.6 |
| Cn1ccnc1SCc1ccc(Cl)cc1Cl | 7.53 |
| CCOC(=O)c1ccc(S(=O)(=O)N2CCN(C(=O)c3cc(=O)c4ccccc4o3)CC2)cc1 | 14.8 |
| CCN(CC)C(=O)Cn1c(=O)c2ccccc2n2c(=S)sc(-c3cccc(C)c3)c12 | 17.1 |
| O=C1NC(=S)N/C1=C\c1ccc(Oc2ccc(C(F)(F)F)cc2[N+](=O)[O-])c(Cl)c1 | 9.8 |
| CCN(CC)S(=O)(=O)c1ccc(S(=O)(=O)N2CCCC2)cc1 | 11 |
| O=C(O)c1ccc(S(=O)(=O)c2ccc3c(c2)C(=O)N(c2ccc(O)cc2)C3=O)cc1 | 6.95 |
| O=C(CN1CCOCC1)N/N=C/c1c(O)ccc2ccccc12 | 11.7 |
| CC(=O)Nc1ccc(NC(=O)C(C)OC(=O)C2CCN(S(=O)(=O)c3cccs3)CC2)cc1 (centres unmarked) | 6.39 |
| CCc1ccc(NC(=O)c2c(C(=O)Nc3ccccc3)sc3nc(C)cc(=O)n23)cc1 | 10.2 |

| Structure (SMILES) | hERG current change (%, negative = inhibition) at 1uM [%] |
| --- | --- |
| COc1cccc(C2NC(=O)c3ccccc3O2)c1OCc1ccccc1F (centres unmarked) | 0.42 |
| O=C1C2C3C=CC(C3)C2C(=O)N1c1ccncc1 (centres unmarked) | 8.16 |
| CC(=O)Nc1ccc(-c2cc(-c3ccccc3)nc(-c3ccccc3)n2)cc1 | 16.6 |
| CNC(=O)OC(C)CNS(=O)(=O)c1ccc(C)cc1 (centres unmarked) | 6.78 |
| Cc1noc2ncnc(Oc3ccc(F)cc3)c12 | 1.07 |
| CCOC(=O)C1=C(N)N(c2ccccc2)C(=O)C1 | 14.4 |
| CC(OC(=O)CCC(=O)c1cccs1)C(=O)Nc1ccc(Cl)cn1 (centres unmarked) | 4.92 |
| CN(C(=S)Nc1ccc(F)cc1)C(c1ccccc1)c1ccccc1 | 10.6 |
| Cc1ccc(CNC(=O)/C(C#N)=C\c2ccc(N(C)C)cc2)cc1 | 8.36 |
| CC1=C(C/C=C(\C)CCCC(C)CCCC(C)CCCC(C)C)C(=O)c2ccccc2C1=O (centres unmarked) | 19.2 |
| CC(=O)c1cccc(NC(=O)C2CC(=O)N(CCc3ccccc3)C2)c1 (centres unmarked) | 12.6 |
| CSc1ccc(CN2CCC(Oc3ccc(C(=O)N4CCCC4)cc3)CC2)cc1 | -56.4 |
| CCOC(=O)C1=C(C)NC(SCC(N)=O)=C(C#N)C1c1ccncc1 (centres unmarked) | 3.88 |
| CC1CCC(NC(=O)CCS(=O)(=O)c2ccc3c(c2)NC(=O)CO3)CC1 (centres unmarked) | 10.6 |
| COc1ccc(-n2nc(C(=O)NCC(=O)N3CCC4(CC3)OCCO4)c3ccccc3c2=O)cc1 | 16.8 |
| CCCCN(C(=O)CCC(=O)Nc1cc(C)on1)C(C(=O)NC1CCCC1)c1ccc(OCC)cc1 (centres unmarked) | 4.26 |
| CCOC(=O)Cc1csc(NC(=O)CN2C(=O)c3ccccc3C2=O)n1 | 15.5 |
| C=CC[C@]12CCc3sccc3C1N(c1ccc(C(=O)OCC)cc1)C2=O (some centres unmarked) | 7.56 |
| CCC(=O)Nc1cccc(C(=O)OC)c1 | 15.6 |
| O=C(Nc1cccnc1)c1c(O)c2cccc3c2n(c1=O)CC3 | 16.6 |
| Nc1cc(Nc2ccccc2)ccn1.O=P(O)(O)O | 9.53 |
| CC(C)C(=O)Nc1ccc(NC(=O)c2cccnc2)cn1 | 3.44 |
| O=C(O)CCCc1c(-[n+]2ccccc2)[nH]c2ccccc12.[Cl-] | 11.5 |

| Structure (SMILES) | hERG current change (%, negative = inhibition) at 1uM [%] |
| --- | --- |
| Cc1ccccc1NC(=S)N1CCN(Cc2ccccc2)CC1 | 8.17 |
| CC(=O)OCC(=O)C1=CCC2C3CCC4=CC(=O)C=CC4(C)C3(F)C(OC(C)=O)CC12C (centres unmarked) | 6.8 |
| Cc1cc(C)cc(NC(=O)Cn2cnc3c(nnn3Cc3ccc(F)cc3)c2=O)c1 | 8.78 |
| COn1c(-c2ccccc2)nc2c1CCc1nonc1-2 | 5.57 |
| Cc1sc(NC(=O)c2ccco2)c(C(c2ccccc2)N2CCC(C)CC2)c1C (centres unmarked) | 15.8 |
| Nc1cc(-c2ccccc2)nn1Cc1ccccc1 | 0.188 |
| COc1cccc(CCNC(=O)CCc2nnc(-c3ccc4c(c3)OCO4)o2)c1 | 13.5 |
| Cc1ccc(NC(=O)CN(C)CC(=O)Nc2sc3c(c2C(N)=O)CCC3)cc1 | -11.5 |
| O=C(C1CCCN(Cc2cccnc2)C1)N1CCCCC1.O=C(O)C(=O)O (centres unmarked) | 15.4 |
| O=C(NC12CC3CC(CC(C3)C1)C2)N1CCC(O)(c2ccc3c(c2)OCO3)CC1 | 2.34 |
| CCCC[C@@H]1CNCCN1CCc1cccc(F)c1 | 8.67 |
| O=C(NNC(=S)NC(=O)c1ccccc1[N+](=O)[O-])c1ccccc1O | 8.16 |
| CCOc1ccc2[nH]c(=O)c(CN(CCN3CCCC3)C(=S)Nc3ccccc3OCC)cc2c1 | -30.2 |
| COC(=O)c1ccc(CSc2ccc3nnc(-c4ccc(F)cc4)n3n2)o1 | -8.96 |
| Cc1ccccc1N=C1N=C(N)c2ccccc21 | 2.72 |
| CN(Cc1cccc(F)c1)C(=O)C(c1ccccc1)c1ccccc1 | 5.63 |
| Cc1cc(C)nc(SCC(=O)c2ccc(F)cc2F)n1 | 3.86 |
| COc1ccc(C(=O)c2c[nH]c(C(=O)NCCCn3ccnc3)c2)cc1 | 6.75 |
| O=C(COC(=O)c1ccco1)NCCNC(=O)COC(=O)c1ccco1 | 8.83 |
| COCCNCCOCCOc1cccc(OC)c1 | 9.18 |
